Values after ≈ are worked out from the molar mass of the structure shown.
These compounds were tested on Rhinovirus (assay: microbe, parasite or virus in culture). Settings: Enterovirus, HRV14, read-out: Rhino HRV14 EC50.
Assay type: cell-based
In the case of `CC(C)c1ccc2c(c1)O[C@@]1(O)c3cccc(N)c3C(=O)[C@@]21O` [Example 46, 1-Amino-4b,9b-dihydroxy-7-isopropyl-4bH-benzo[d]indeno[1,2-b]furan-10(9bH)-one], the EC50 was less than 0.01 µg/mL.

The compounds below were run on Coxsackie B1 (assay: organism not typed). Settings: read-out: Coxsackie B1 EC50.
For `Cc1ccc2c(c1)OC1(O)c3ccccc3C(=O)C21O` (stereo not shown) [Example 1, 4b,9b-Dihydroxy-7-methyl-4bH-benzo[d]indeno[1,2-b]furan-10(9bH)-one], the EC50 was 0.026 µg/mL (≈ 0.0969 µM).
`CC(C)(C)c1cc(C(C)(C)C)c2c(c1)C1(O)C(=O)c3ccccc3C1(O)O2` (stereo not shown) [Example 24, 6,8-di-tert-Butyl-4b,9b-dihydroxy-4bH-benzo[d]indeno[1,2-b]furan-10(9bH)-one] gave an EC50 of 0.013 µg/mL (≈ 0.0355 µM).
With `CC(C)OC(=O)Nc1cccc2c1C(=O)C1(O)c3ccc(C(C)C)cc3OC21O` (stereo not shown) [Example 29, Isopropyl 4b,9b-dihydroxy-7-isopropyl-10-oxo-9b,10-dihydro-4bH-benzo[d]indeno[1,2-b]furan-1-ylcarbamate] the EC50 was 0.355 µg/mL (≈ 0.893 µM).
With `C=CC(=O)OC12Oc3cc(C(C)C)ccc3C1(O)C(=O)c1ccccc12` (stereo not shown) [Example 35, 9b-Hydroxy-7-isopropyl-10-oxo-9b,10-dihydro-4bH-benzo[d]indeno[1,2-b]furan-4b-yl acrylate] the EC50 was less than 0.01 µg/mL.
Work on `CC(C)c1ccc2c(c1)OC1(OC(=O)c3ccco3)c3ccccc3C(=O)C21O` (stereo not shown) [Example 36, 9b-Hydroxy-7-isopropyl-10-oxo-9b,10-dihydro-4bH-benzo[d]indeno[1,2-b]furan-4b-yl furane-2-carboxylatefurane-2-carboxylic acid] yielded an EC50 of less than 0.01 µg/mL.
`CCOC(=O)OC12Oc3cc(C(C)C)ccc3C1(OC(=O)OCC)C(=O)c1ccccc12` (stereo not shown) [Example 37, Diethyl 7-isopropyl-10-oxo-9b,10-dihydro-4bH-benzo[d]indeno[1,2-b]furane-4b,9b-diyl dicarbonate] was tested, and the EC50 was less than 0.01 µg/mL.
`CCOC(=O)OC12Oc3cc(C(C)C)ccc3C1(O)C(=O)c1ccccc12` (stereo not shown) [Example 38, Ethyl 9b-hydroxy-7-isopropyl-10-oxo-9b,10-dihydro-4bH-benzo[d]indeno[1,2-b]furan-4b-yl carbonate] gave an EC50 of less than 0.01 µg/mL.
`CCN(CC)C(=O)OC12Oc3cc(C(C)C)ccc3C1(O)C(=O)c1ccccc12` (stereo not shown) [Example 40, 9b-Hydroxy-7-isopropyl-10-oxo-9b,10-dihydro-4bH-benzo[d]indeno[1,2-b]furan-4b-yl diethylcarbamate] showed an EC50 of less than 0.01 µg/mL.
With `CCN(CC)C(=O)OC12C(=O)c3ccccc3C1(O)Oc1cc(C(C)C)ccc12` (stereo not shown) [Example 41, 4b-Hydroxy-7-isopropyl-10-oxo-9b,10-dihydro-4bH-benzo[d]indeno[1,2-b]furan-9b-yl diethylcarbamate] the EC50 was less than 0.01 µg/mL.
For `CC(C)c1ccc2c(c1)O[C@@]1(O)c3cccc(N)c3C(=O)[C@@]21O` [Example 46, 1-Amino-4b,9b-dihydroxy-7-isopropyl-4bH-benzo[d]indeno[1,2-b]furan-10(9bH)-one], the EC50 was less than 0.01 µg/mL.
`COC(=O)Nc1cccc2c1C(=O)C1(O)c3ccc(C(C)C)cc3OC21O` (stereo not shown) [Example 49, Methyl 4b,9b-dihydroxy-7-isopropyl-10-oxo-9b,10-dihydro-4bH-benzo[d]indeno[1,2-b]furan-1-ylcarbamate] was tested, and the EC50 was 0.373 µg/mL (≈ 1.01 µM).
`CC(=O)OC12Oc3cc(C(C)C)ccc3C1(OC(C)=O)C(=O)c1c([N+](=O)[O-])cccc12` (stereo not shown) [Example 53] was tested, and the EC50 was 0.04 µg/mL (≈ 0.094 µM).
For `CC(C)NC(=O)Nc1cccc2c1C(=O)C1(O)c3ccc(C(C)C)cc3OC21O` (stereo not shown) [Example 55], the EC50 was 0.084 µg/mL (≈ 0.212 µM).
With `CC(=O)Nc1cccc2c1C(=O)C1(N)c3ccc(C(C)C)cc3OC21O` (stereo not shown) [Example 56] the EC50 was 0.0784 µg/mL (≈ 0.222 µM).
`CC(=O)Nc1cccc2c1C(=O)C1(NC(C)=O)c3ccc(C(C)C)cc3OC21O` (stereo not shown) [Example 57, N,N′-(4b-Hydroxy-7-isopropyl-10-oxo-9b,10-dihydro-4bH-benzo[d]indeno[1,2-b]furane-1,9b-diyl)diacetamide] gave an EC50 of 0.35 µg/mL (≈ 0.887 µM).
With `CCCCCCNC12C(=O)c3ccccc3C1(O)Oc1cc(C(C)C)ccc12` (stereo not shown) [Example 67, 9b-Hexylamino-4b-hydroxy-7-isopropyl-4b,9b-dihydro-5-oxa-indeno[2,1-a]inden-10-one] the EC50 was 0.596 µg/mL (≈ 1.57 µM).
In the case of `CC(C)c1ccc2c(c1)OC1(O)c3ccccc3C(=O)C21N=C=O` (stereo not shown) [Example 69, 4b-Hydroxy-9b-isocyanato-7-isopropyl-4b,9b-dihydro-5-oxa-indeno[2,1-a]-inden-10-one], the EC50 was 0.43 µg/mL (≈ 1.34 µM).
In the case of `CC(C)c1ccc2c(c1)O[C@@]1(O)c3cccc([N+](=O)[O-])c3C(=O)[C@@]21O` [Example 80, 4b,9b-Dihydroxy-7-isopropyl-1-nitro-4bH-benzo[d]indeno[1,2-b]furan-10(9bH)-one], the EC50 was 0.0139 µg/mL (≈ 0.0407 µM).
With `CO/N=C1/c2ccccc2C2(O)Oc3cc(C(C)C)ccc3C12O` (stereo not shown) [Example 88, 4b,9b-Dihydroxy-7-isopropyl-4bH-indeno[1,2-b]benzofuran-10(9bH)-one O-methyl oxime] the EC50 was 0.017 µg/mL (≈ 0.0522 µM).
With `CC(=O)N1c2cc(C)c(C)cc2C2(O)C(=O)c3ccccc3C12O` (stereo not shown) [Example 104, 5-Acetyl-4b,9b-dihydroxy-7,8-dimethyl-4b,5-dihydroindeno[1,2-b]indol-10(9bH)-one] the EC50 was 0.015 µg/mL (≈ 0.0464 µM).
`CC(=O)NC12C(=O)c3ccccc3C1(OC(=O)C(C)(C)C)Oc1cc(C(C)C)ccc12` (stereo not shown) [Example 117, 9b-Acetamido-7-isopropyl-10-oxo-9b,10-dihydro-4bH-benzo[d]indeno[1,2-b]furan-4b-yl pivalate] gave an EC50 of 0.012 µg/mL (≈ 0.0285 µM).
`CC(=O)NC12Oc3cc(C(C)C)ccc3C1(NC(C)=O)C(=O)c1ccccc12` (stereo not shown) [Example 119] gave an EC50 of 0.027 µg/mL (≈ 0.0713 µM).
For `CC(=O)NC12C(=O)c3ccccc3C1(OC(=O)Oc1ccccc1)Oc1cc(C(C)C)ccc12` (stereo not shown) [Example 121, Carbonic acid 9b-acetylamino-7-isopropyl-10-oxo-9b,10-dihydro-5-oxa-indeno[2,1-a]inden-4b-yl ester phenyl ester], the EC50 was 0.02 µg/mL (≈ 0.0437 µM).
`CC(C)c1ccc2c(c1)OC1(O)c3cccc(NCc4ccccc4)c3C(=O)C21O` (stereo not shown) [Example 132, 1-(Benzylamino)-4b,9b-dihydroxy-7-isopropyl-4bH-indeno[1,2-b]benzofuran-10(9bH)-one] was tested, and the EC50 was 0.03 µg/mL (≈ 0.0747 µM).
Compound `CCNc1cccc2c1C(=O)C1(O)c3ccc(C(C)C)cc3OC21O` (stereo not shown) [Example 133, 1-(Ethylamino)-4b,9b-dihydroxy-7-isopropyl-4bH-indeno[1,2-b]benzofuran-10(9bH)-one] has an EC50 of less than 0.01 µg/mL.
`CC(C)C(=O)N1c2cc(C(C)C)ccc2C2(O)C(=O)c3ccccc3C12O` (stereo not shown) [Example 145, 4b,9b-Dihydroxy-5-isobutyryl-7-isopropyl-5,9b-dihydro-4bH-indeno[1,2-b]indol-10-one] gave an EC50 of 0.026 µg/mL (≈ 0.0711 µM).
`CC(C)c1ccc2c(c1)OC1(O)c3cccc(N(C)C)c3C(=O)C21O` (stereo not shown) [Example 151, 1-(Dimethylamino)-4b,9b-dihydroxy-7-isopropyl-4bH-benzo[d]indeno[1,2-b]-furan-10(9bH)-one] showed an EC50 of 0.04 µg/mL (≈ 0.118 µM).
`CC(C)c1ccc2c(c1)OC1(O)c3cccc(N)c3C(=O)C21NS(C)(=O)=O` (stereo not shown) [Example 168, N-(1-Amino-4b-hydroxy-7-isopropyl-10-oxo-9b,10-dihydro-4bH-benzo[d]indeno[1,2-b]furan-9b-yl)methanesulfonamide] showed an EC50 of 0.04 µg/mL (≈ 0.103 µM).
In the case of `CCNC(=O)NC12C(=O)c3c(N)cccc3C1(O)Oc1cc(C(C)C)ccc12` (stereo not shown) [Example 173], the EC50 was 0.036 µg/mL (≈ 0.0944 µM).
`CC(C)c1ccc2c(c1)OC1(O)c3ccccc3C(=O)C21NC(=O)[C@@H](Cc1ccccc1)NC(=O)OC(C)(C)C` (stereo partly drawn) [Example 185, tert-Butyl(2R)-1-(4b-hydroxy-7-isopropyl-10-oxo-9b,10-dihydro-4bH-benzo[d]indeno[1,2-b]furan-9b-ylamino)-1-oxo-3-phenylpropan-2-ylcarbamate] showed an EC50 of 0.028 µg/mL (≈ 0.0516 µM).
